In PubChem BioAssay (NCI):
Values joined by “and” are separate entries in the source; they are usually repeats but may differ in a detail not shown here. Equal entries are not always repeated.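 Grown in 96-well plates, cells were treated for 48 hours with each compound at five concentrations. Insufficient inhibition: endpoint recorded as highest concentration tested. GI50 is the concentration that inhibits growth by half. The concentration for full growth arrest is given as TGI.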

tested on: NCI-H322M lung; test: NCI-60 cell line screen, 48 h

SMILES | GI50 [µM] | TGI
C=C1C(=O)O[C@H]2[C@H]1CC/C(COC(=O)NCc1c[nH]c3ccccc13)=C\CC[C@@]1(C)O[C@@H]21 | 11.1 | 23.4 µM
COc1ccc(/C=C2/CSCC3=C2NC(=S)NC3c2ccc(OC)c(OC)c2OC)c(OC)c1OC (stereo not given) |  | 64.3 µM
COc1ccccc1Cc1ccc(C2C=CC3(CC(=O)C=C3C)C(=O)C2)o1 (stereo not given) |  | > 100 µM
COc1cc(OC)cc(-c2ccc(-c3ccc(C(=N)N)cn3)o2)c1 | 1.6 | 3.05 µM
O=C(CC1(O)C(=O)N(Cc2ccccc2)c2ccc(Cl)cc21)c1ccc(C(=O)NCC2CCC3(CC2)OOC2(CCCCC2)OO3)cc1 (stereo not given) | 8.1 | > 100 µM
COc1cc(C)c(/C=C2/N=C(c3ccccc3)OC2=O)c([N+](=O)[O-])c1OC |  | > 100 µM
COc1cc(C2C3=C(COC3=O)Oc3cc4c(cc32)OCO4)ccc1O (stereo not given) |  | > 100 µM
N/N=C1\C(=O)N(Cc2ccccc2)C(=O)C1C(=O)NCc1ccccc1 (stereo not given) |  | > 100 µM
CCCCCOCC(O)CO (stereo not given) |  | > 100 µM
COC(=O)C1CCN(C(=O)OC(C)(C)C)CC1 |  | > 100 µM
CCOC(=O)C1SC(=Nc2ccc(OC)c(OC)c2)N=C1C (stereo not given) |  | > 100 µM
CSCC[C@@H]1C(=O)N(C)[C@H](C(C)(C)C)N1C(=O)c1ccccc1 |  | > 100 µM
CN(CC(=O)O)c1ncc2c(n1)C=CCC2 |  | > 100 µM
C=CCN1/C(=C(\C#N)c2nc3ccccc3[nH]2)Sc2c1nc[nH]c2=O |  | > 100 µM
CCOP(=O)(OCC)/C(C#N)=C/c1cccn1C(C)C |  | > 100 µM
NC(N)=NS(=O)(=O)c1ccc(N/N=C2/CCOC2=O)cc1 |  | > 100 µM
Cc1nc2c(c(N3CCCc4ccccc43)n1)CCC2 | 0.0104 | > 100 µM
O=C(Nc1ccc(Cc2ccccc2)cc1)Nc1nn(C(=O)Nc2ccc(Cc3ccccc3)cc2)c2ccccc12 | > 100 | > 100 µM
COc1ccc(/C(=N\NC(=O)NN)C(c2ccc(OC)cc2)C2(O)C(=O)Nc3c(Cl)cc(Cl)cc32)cc1 (stereo not given) |  | > 100 µM
Cc1n[nH]c(=S)n(C)c1=S |  | > 100 µM
COC1C(O)CC(OC2CC(OC3CC(O[C@@H]4C(=O)c5c(cc6cc(OC7CC(OC8CC(O)C(O)C(C)O8)C(O)C(C)O7)c(C)c(O)c6c5O)CC4[C@H](OC)C(=O)O)OC(C)C3O)OC(C)C2O)OC1C (stereo not given in full) | 2.59 | > 33.3 µM
N#CC(N=Nc1ccccc1C(=O)O)C(N)=O (stereo not given) |  | > 100 µM
N#CC(/C(CCC(=O)Nc1ccc(Cl)cc1)=N/NC(=O)c1cc2ccccc2cc1O)c1ccccc1 (stereo not given) |  | > 100 µM

SMILES | GI50 [µM] | TGI
CCC(C)C(N)C(=O)NC(CC(N)=O)C(=O)NC(CC(C)C)C(=O)NC(CCCCN)C(=O)NC(C)C(=O)NC(CC(C)C)C(=O)NC(C)C(=O)NC(C)C(=O)NC(CC(C)C)C(=O)NC(C)C(=O)NC(CCCCN)C(=O)NC(CCCCN)C(=O)NC(C(=O)NC(CC(C)C)C(N)=O)C(C)CC (stereo not given) |  | 16.7 µM
CO[C@H]1C=CO[C@@]2(C)Oc3c(C)c(O)c4c(O)c(c(CN5CCN(C)CC5)c(O)c4c3C2=O)NC(=O)/C(C)=C\C=C[C@H](C)[C@H](O)C(C)[C@@H](O)C(C)[C@H](OC(C)=O)[C@@H]1C (stereo not given in full) |  | > 100 µM
CCOC(=O)c1nc2ccc(C(F)(F)F)cc2nc1Nc1cc(OC)c(OC)c(OC)c1 |  | > 100 µM
CSC1NC(c2ccccc2)=C(C#N)C(=O)N1C1OCC(OC(C)=O)C(OC(C)=O)C1OC(C)=O (stereo not given) |  | > 100 µM
CN(CCCCCl)P(=O)(OCCS(=O)(=O)CC(NC(=O)CCC(N)C(=O)O)C(=O)NC(C(=O)O)c1ccccc1)OCC1OC(n2ccc(N)nc2=O)C(O)C1O (stereo not given) | > 75 | > 75 µM
COc1cc(C2c3cc4c(cc3[C@@H](Nc3cccc(CO)c3)C3COC(=O)[C@H]23)OCO4)cc(OC)c1O (stereo not given in full) |  | 52 µM
CN1CN(C2OC(CO)C(O)C2O)c2nc(N)[nH]c(=O)c21 (stereo not given) |  | > 100 µM
COc1cc2c3cc1Oc1c(OC)c(OC)cc4c1C(=NCC4)Cc1ccc(cc1)Oc1cc(ccc1O)C[C@H]3N(C)CC2 |  | 65.2 µM
O=C(/C=C\c1cccc2ccccc12)c1ccc(F)cc1 |  | > 100 µM
O=C1c2ccccc2C(=O)N1CCSCC(CO)SCCN1C(=O)c2ccccc2C1=O (stereo not given) |  | > 100 µM
COc1ccc(/C=C/C(=O)/C=C/c2ccc(OC)cc2OC)c(OC)c1 |  | > 100 µM
CC1(C)[C@@H]2CC[C@]1(C)[C@H](OC(=O)/C=C/c1ccccc1)C2 |  | 44.2 µM
CC(=O)OCC1OC(n2ccc(=O)[nH]c2=O)C(OC(C)=O)C(OC(C)=O)C1OC(C)=O (stereo not given) |  | > 100 µM
O=C(/C=C/c1ccc(Cl)cc1)c1ccccc(=O)c1O |  | 15.7 µM
Cc1c2ccn(O)cc2c(C)c2c1nc1ccccc12 |  | > 97.1 µM
CSc1c(C2=C(c3cn(C)c4ccccc34)C(=O)NC2=O)c2ccccc2n1C | 0.903 | > 25 µM
Cn1c(=O)c(Oc2ccc(F)cc2F)cc2cnc(NC(C)(C)CO)nc21 | > 25 | > 25 µM
Cc1c[n+]2c3ccccc3c3ccccc3c2s1 |  | 48.6 µM
COc1ccc(OC)c(NCC(=O)Nn2cnc3ccc(S(=O)(=O)Nc4cc(OC)ccc4OC)cc3c2=O)c1 |  | > 100 µM
O=C1/C=C/[C@@H](O)[C@@H]2C[C@@H](O)C[C@H]2/C=C/CCC[C@H](CCc2cccc3ccccc23)O1 | 0.0569 | 13.4 µM
Cc1cc(Cl)nc2nc(Cl)c(N)cc12 |  | 25.4 µM
CNC(=O)NCNC(=O)NC |  | > 100 µM
COc1cc2c(cc1OC)C1C(=O)c3c(O)cc4c(c3OC1CO2)C=CC(C)(C)O4 (stereo not given) |  | > 100 µM

SMILES | GI50 [µM] | TGI
O=C(CCl)NCCNc1nccc(Nc2ccc(S(=O)(=O)Nc3ccccn3)cc2)n1 | 2.92 | 12.9 µM
O=C(Nc1ccc(Cl)cc1C(F)(F)F)C(=O)C1CCCS1(=O)=O (stereo not given) |  | > 100 µM
CCCCCCCCCCCC(=O)OC[C@H](C[As](=O)(O)O)OC(=O)CCCCCCCCCCC |  | 30.9 µM
COc1ccc(C2=NN(c3ccccc3)C[N+](c3ccc(C)cc3)=N2)cc1 |  | > 100 µM
Cc1ccc2oc(=O)cc(/C(=C3/C=CC=N3)c3ccc[nH]3)c2c1 | 0.423 | 6 µM
N=C(N)c1ccc(-c2ccc(/C=C/c3ccccc3)s2)cc1 | 1.61 | 2.99 µM
COc1ccc(/C(C)=N/NC(=O)c2ccncc2)c(OC)c1 |  | > 10 µM
O=P1(c2ccccc2)c2ccccc2-c2ccccc21 |  | > 100 µM
CC(C)C12Cc3c(ccc4ccccc34)OC1(C)Oc1ccc3ccccc3c1C2 (stereo not given) |  | > 100 µM
COc1cccc(/C=C/C(=O)c2ccc(SC)cc2)c1OC | 16.4 | 30.7 µM
CCOC(=O)CC(c1ccccc1)C(C)(C(=O)OCC)C(=O)OCC (stereo not given) |  | > 100 µM
O=c1c2ccccc2[nH]n1Cc1ccccc1 |  | > 100 µM
CC1(C)S[C@@H]2[C@H](N3C(=O)c4ccccc4C3=O)CN2[C@H]1NC(=O)N[C@@H]1N2C[C@@H](N3C(=O)c4ccccc4C3=O)[C@H]2SC1(C)C |  | > 100 µM
C=CC(O)(CBr)CCC(Br)C(=C)C (stereo not given) |  | > 10 µM
COc1cc2c(c(OC)c1OC)-c1ccc(O)cc1[C@@H](NC(C)=O)CC2 | 0.0683 | > 100 µM
CC(=O)/C(=C/c1ccccc1)C(=O)CC(C)C | 18.9 | 34.3 µM
CSCS(=O)C[C@H](CO)NC(=O)/C=C/c1c(C)[nH]c(=O)[nH]c1=O (stereo not given in full) | 0.803 | 4.28 µM and 3.95 µM
CO[C@@H]1C=C[C@@]23c4cc5c(cc4CN(C[C@@H]2O)[C@H]3C1)OCO5 |  | > 100 µM
NC(=NCc1ccccc1)C(N=Nc1ccccc1)C(=O)NCc1ccccc1 (stereo not given) | 7.97 | 32.5 µM
COC(=O)C1Cc2ccc(O)c(O)c2CN1 (stereo not given) |  | 89.2 µM
Cc1cc(S(=O)(=O)N2CCNNC2=O)c(S)cc1Cl |  | 81.6 µM
